{
  "source": "the supplement of paper PMC3334620",
  "note": "In all, about 33,000 sequences were measured (“E-score (-0.5 to 0.5)”: median about -0.036, highest 2% from about 0.37 on). Some of the results follow.",
  "data": [
    {"target": "T1, Yer064c (UniProt P40041)", "T1 sequence": "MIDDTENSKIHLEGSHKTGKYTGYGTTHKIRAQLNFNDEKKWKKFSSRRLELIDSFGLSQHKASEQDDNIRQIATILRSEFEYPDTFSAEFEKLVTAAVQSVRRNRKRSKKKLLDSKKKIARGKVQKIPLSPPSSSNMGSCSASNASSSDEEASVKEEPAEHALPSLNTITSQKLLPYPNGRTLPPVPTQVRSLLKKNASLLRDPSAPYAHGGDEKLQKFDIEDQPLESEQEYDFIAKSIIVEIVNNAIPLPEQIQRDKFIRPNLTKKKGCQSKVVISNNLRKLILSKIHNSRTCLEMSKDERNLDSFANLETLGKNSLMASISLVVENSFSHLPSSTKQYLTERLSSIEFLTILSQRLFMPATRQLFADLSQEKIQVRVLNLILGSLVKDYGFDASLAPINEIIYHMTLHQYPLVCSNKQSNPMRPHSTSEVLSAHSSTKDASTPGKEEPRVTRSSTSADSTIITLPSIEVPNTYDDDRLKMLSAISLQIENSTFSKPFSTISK", "experiment": "PBM E-score (8-mer binding enrichment) (E-score (-0.5 to 0.5)); higher = stronger / more preferred TF binding; most listed sequences are background and not binding sites", "details": "protein concentration: 200 nM; construct: GST-full length", "how_it_was_run": "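Full-length yeast transcription factors or their DNA-binding domains, GST-tagged and expressed with PURExpress, were applied at about 100-200 nM to universal all-10-mer Agilent arrays. These arrays had been made double-stranded by primer extension on fresh or once-stripped slides. Detection used fluorescent anti-GST, normalisation used masliner, and E-scores for ungapped eight-base words pooled with reverse complements came from the Universal PBM Analysis Suite.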", "values": [
      {"sequence": "ACGCGCGT", "PBM E-score": -0.0373},
      {"sequence": "AGCCTCGG", "PBM E-score": -0.131},
      {"sequence": "ACGTACAC", "PBM E-score": 0.016},
      {"sequence": "AGATGTCA", "PBM E-score": -0.177},
      {"sequence": "TATTATAA", "PBM E-score": 0.143},
      {"sequence": "CCAAAACG", "PBM E-score": 0.102},
      {"sequence": "AAGAGCCC", "PBM E-score": -0.196},
      {"sequence": "CCACAGGA", "PBM E-score": -0.0975},
      {"sequence": "TACACCAA", "PBM E-score": -0.0139},
      {"sequence": "AGGCCACT", "PBM E-score": -0.286},
      {"sequence": "TCGCAGAA", "PBM E-score": -0.098},
      {"sequence": "AATAGTCT", "PBM E-score": 0.297},
      {"sequence": "ACAGTTTC", "PBM E-score": 0.00616},
      {"sequence": "GCAGTTGA", "PBM E-score": 0.138},
      {"sequence": "CCCCAGCA", "PBM E-score": -0.275},
      {"sequence": "AACTGCCC", "PBM E-score": -0.147},
      {"sequence": "TACCAAGA", "PBM E-score": 0.0476},
      {"sequence": "ATGTCGGC", "PBM E-score": -0.0683},
      {"sequence": "CACCCGAC", "PBM E-score": 0.0884},
      {"sequence": "CTGGCGTC", "PBM E-score": -0.0672},
      {"sequence": "ATTCCCTA", "PBM E-score": -0.148},
      {"sequence": "CCTTTTCA", "PBM E-score": -0.104},
      {"sequence": "AAGCGCCA", "PBM E-score": -0.24},
      {"sequence": "AGTCCAAA", "PBM E-score": 0.136},
      {"sequence": "ACTTCAAT", "PBM E-score": 0.106},
      {"sequence": "ATTGTTGC", "PBM E-score": -0.0256},
      {"sequence": "AGCTACTC", "PBM E-score": -0.106},
      {"sequence": "CCACGACC", "PBM E-score": 0.0717},
      {"sequence": "GCTACATA", "PBM E-score": 0.00598},
      {"sequence": "AGCCACTA", "PBM E-score": 0.0591},
      {"sequence": "CGGTCATC", "PBM E-score": -0.108},
      {"sequence": "AGCTCGGC", "PBM E-score": -0.151},
      {"sequence": "CACATTAC", "PBM E-score": -0.0779},
      {"sequence": "AAAATGGG", "PBM E-score": -0.239},
      {"sequence": "CACTATAG", "PBM E-score": -0.0715},
      {"sequence": "GAGAAGGA", "PBM E-score": -0.183},
      {"sequence": "ATATCCTA", "PBM E-score": -0.078},
      {"sequence": "CTCTTCTA", "PBM E-score": -0.0284},
      {"sequence": "ACGTGCGG", "PBM E-score": -0.247},
      {"sequence": "CCCCACGG", "PBM E-score": -0.239},
      {"sequence": "GGATTTAC", "PBM E-score": -0.101},
      {"sequence": "GAAGGTAA", "PBM E-score": 0.0282},
      {"sequence": "CTCAGATC", "PBM E-score": 0.0765},
      {"sequence": "GAATCTCA", "PBM E-score": 0.101},
      {"sequence": "ACGCCGTC", "PBM E-score": -0.205},
      {"sequence": "ACTAATGC", "PBM E-score": 0.23},
      {"sequence": "AAGAACTG", "PBM E-score": -0.104},
      {"sequence": "AGCCTGAT", "PBM E-score": 0.0848},
      {"sequence": "ATCGTCCA", "PBM E-score": -0.116},
      {"sequence": "ATACGCAC", "PBM E-score": -0.172},
      {"sequence": "GGCGTCGA", "PBM E-score": -0.154},
      {"sequence": "CCGACCTC", "PBM E-score": -0.0328},
      {"sequence": "TGTGGGAA", "PBM E-score": -0.0587},
      {"sequence": "AATCATTG", "PBM E-score": 0.43},
      {"sequence": "CTCAGACA", "PBM E-score": 0.0631},
      {"sequence": "CTTTAGAC", "PBM E-score": 0.108},
      {"sequence": "GTCTATTA", "PBM E-score": 0.0741},
      {"sequence": "CGTGGTTC", "PBM E-score": 0.0434},
      {"sequence": "CACCCGTG", "PBM E-score": 0.064},
      {"sequence": "AATTCCCC", "PBM E-score": -0.128},
      {"sequence": "TCCTGTCA", "PBM E-score": 0.128},
      {"sequence": "CTAGGAAG", "PBM E-score": 0.0853},
      {"sequence": "ACTGCCCC", "PBM E-score": -0.136},
      {"sequence": "AAGTTCGC", "PBM E-score": -0.098},
      {"sequence": "AAGTACAT", "PBM E-score": 0.089},
      {"sequence": "GGAATGAA", "PBM E-score": 0.00348},
      {"sequence": "TCAGTAGA", "PBM E-score": 0.187},
      {"sequence": "AGTTCAAA", "PBM E-score": 0.0705},
      {"sequence": "AACCCTAT", "PBM E-score": 0.00296},
      {"sequence": "AGGCCTAG", "PBM E-score": -0.197},
      {"sequence": "CAGAATAA", "PBM E-score": 0.0889},
      {"sequence": "CTGCAGAC", "PBM E-score": -0.0447},
      {"sequence": "ATAAATAG", "PBM E-score": -0.00962},
      {"sequence": "GCATTATA", "PBM E-score": 0.00873},
      {"sequence": "CCAGATAC", "PBM E-score": -0.15},
      {"sequence": "GCTCAATA", "PBM E-score": 0.0778},
      {"sequence": "CAATCTAC", "PBM E-score": 0.0573},
      {"sequence": "GGTGCGAC", "PBM E-score": -0.0872},
      {"sequence": "CTGAGTAC", "PBM E-score": 0.291},
      {"sequence": "GCTCGGCA", "PBM E-score": -0.165},
      {"sequence": "CGTCTAAA", "PBM E-score": -0.155},
      {"sequence": "CCGGCATA", "PBM E-score": -0.348},
      {"sequence": "AACAATGC", "PBM E-score": -0.0469},
      {"sequence": "TCTCCACA", "PBM E-score": 0.0415},
      {"sequence": "CACTGCGG", "PBM E-score": -0.0304},
      {"sequence": "CAGAGGCC", "PBM E-score": -0.195},
      {"sequence": "GTATGGAC", "PBM E-score": -0.0453},
      {"sequence": "GGATATCA", "PBM E-score": -0.274},
      {"sequence": "GCGCACGA", "PBM E-score": -0.146},
      {"sequence": "AAGACCCT", "PBM E-score": 0.0125},
      {"sequence": "AAGGACCC", "PBM E-score": -0.172},
      {"sequence": "ACGAGATA", "PBM E-score": -0.0927},
      {"sequence": "GAAAATCC", "PBM E-score": -0.114},
      {"sequence": "TCTACTCA", "PBM E-score": 0.202},
      {"sequence": "AACTCCCC", "PBM E-score": 0.0421},
      {"sequence": "CCTATTCA", "PBM E-score": -0.199},
      {"sequence": "CCGTAATC", "PBM E-score": 0.243},
      {"sequence": "CACTTGGC", "PBM E-score": -0.159},
      {"sequence": "CCGTCGTA", "PBM E-score": -0.0863},
      {"sequence": "CCTTAGAG", "PBM E-score": -0.0606},
      {"sequence": "CGAACTCG", "PBM E-score": -0.0883},
      {"sequence": "AGGCGATG", "PBM E-score": -0.109},
      {"sequence": "GAGAGGAC", "PBM E-score": 0.00017},
      {"sequence": "CCTCAGCA", "PBM E-score": -0.202},
      {"sequence": "ACTCGCAG", "PBM E-score": 0.16},
      {"sequence": "TTATAAAA", "PBM E-score": 0.138},
      {"sequence": "GAACTGTC", "PBM E-score": -0.0169},
      {"sequence": "ACACCTTG", "PBM E-score": -0.0294},
      {"sequence": "AACTCCCA", "PBM E-score": -0.184},
      {"sequence": "AGGCCTAA", "PBM E-score": -0.0777}
    ]}
  ]
}
